{"source": "paper PMC9911399", "about": "“Two distinct binding modes provide the RNA-binding protein RbFox with extraordinary sequence specificity”", "binders": {"B1": {"name": "UAUAGAC (DNA:RNA)", "RNA": "GGGAGACCGGAAUUCAGAUUGUCCUAUAGACUUAAAUCCCGUCGUAGCCACCA", "DNA 1": "CAATCTGAATTCCGGTCTCCC", "DNA 2": "TGGTGGCTACGACGGGATT"}, "B2": {"name": "AUAGCUG (DNA:RNA)", "RNA": "GGGAGACCGGAAUUCAGAUUGUCCAUAGCUGUUAAAUCCCGUCGUAGCCACCA", "DNA 1": "CAATCTGAATTCCGGTCTCCC", "DNA 2": "TGGTGGCTACGACGGGATT"}, "B3": {"name": "UGGCUGU (DNA:RNA)", "RNA": "B1 RNA with A26G, U27G, A28C, G29U, A30G, C31U", "DNA 1": "CAATCTGAATTCCGGTCTCCC", "DNA 2": "TGGTGGCTACGACGGGATT"}, "B4": {"name": "GUUGCCA (DNA:RNA)", "RNA": "B2 RNA with A25G, A27U, U30C, G31A", "DNA 1": "CAATCTGAATTCCGGTCTCCC", "DNA 2": "TGGTGGCTACGACGGGATT"}, "B5": {"name": "AGCUAGG (DNA:RNA)", "RNA": "B2 RNA with U26G, A27C, G28U, C29A, U30G", "DNA 1": "CAATCTGAATTCCGGTCTCCC", "DNA 2": "TGGTGGCTACGACGGGATT"}, "B6": {"name": "AUGGACU (DNA:RNA)", "RNA": "B2 RNA with A27G, C29A, U30C, G31U", "DNA 1": "CAATCTGAATTCCGGTCTCCC", "DNA 2": "TGGTGGCTACGACGGGATT"}, "B7": {"name": "UCACUAU (DNA:RNA)", "RNA": "B1 RNA with A26C, U27A, A28C, G29U, C31U", "DNA 1": "CAATCTGAATTCCGGTCTCCC", "DNA 2": "TGGTGGCTACGACGGGATT"}, "B8": {"name": "UGCCUCU (DNA:RNA)", "RNA": "B1 RNA with A26G, U27C, A28C, G29U, A30C, C31U", "DNA 1": "CAATCTGAATTCCGGTCTCCC", "DNA 2": "TGGTGGCTACGACGGGATT"}, "B9": {"name": "CCAGUGC (DNA:RNA)", "RNA": "B2 RNA with A25C, U26C, C29U, U30G, G31C", "DNA 1": "CAATCTGAATTCCGGTCTCCC", "DNA 2": "TGGTGGCTACGACGGGATT"}, "B10": {"name": "GGACAGG (DNA:RNA)", "RNA": "B2 RNA with A25G, U26G, G28C, C29A, U30G", "DNA 1": "CAATCTGAATTCCGGTCTCCC", "DNA 2": "TGGTGGCTACGACGGGATT"}, "B11": {"name": "GGGAUGG (DNA:RNA)", "RNA": "B2 RNA with A25G, U26G, A27G, G28A, C29U, U30G", "DNA 1": "CAATCTGAATTCCGGTCTCCC", "DNA 2": "TGGTGGCTACGACGGGATT"}, "B12": {"name": "CGUGUGC (DNA:RNA)", "RNA": "B1 RNA with U25C, A26G, A28G, G29U, A30G", "DNA 1": "CAATCTGAATTCCGGTCTCCC", "DNA 2": "TGGTGGCTACGACGGGATT"}, "B13": {"name": "CGUGAAC (DNA:RNA)", "RNA": "B1 RNA with U25C, A26G, A28G, G29A", "DNA 1": "CAATCTGAATTCCGGTCTCCC", "DNA 2": "TGGTGGCTACGACGGGATT"}, "B14": {"name": "AGCUGCA (DNA:RNA)", "RNA": "B2 RNA with U26G, A27C, G28U, C29G, U30C, G31A", "DNA 1": "CAATCTGAATTCCGGTCTCCC", "DNA 2": "TGGTGGCTACGACGGGATT"}, "B15": {"name": "AGUCAGC (DNA:RNA)", "RNA": "B1 RNA with U25A, A26G, A28C, G29A, A30G", "DNA 1": "CAATCTGAATTCCGGTCTCCC", "DNA 2": "TGGTGGCTACGACGGGATT"}, "B16": {"name": "CUAGAGC (DNA:RNA)", "RNA": "B2 RNA with A25C, C29A, U30G, G31C", "DNA 1": "CAATCTGAATTCCGGTCTCCC", "DNA 2": "TGGTGGCTACGACGGGATT"}, "B17": {"name": "ACCAACC (DNA:RNA)", "RNA": "B1 RNA with U25A, A26C, U27C, G29A, A30C", "DNA 1": "CAATCTGAATTCCGGTCTCCC", "DNA 2": "TGGTGGCTACGACGGGATT"}, "B18": {"name": "UCUGGAC (DNA:RNA)", "RNA": "B1 RNA with A26C, A28G", "DNA 1": "CAATCTGAATTCCGGTCTCCC", "DNA 2": "TGGTGGCTACGACGGGATT"}, "B19": {"name": "ACCGAAA (DNA:RNA)", "RNA": "B2 RNA with U26C, A27C, C29A, U30A, G31A", "DNA 1": "CAATCTGAATTCCGGTCTCCC", "DNA 2": "TGGTGGCTACGACGGGATT"}, "B20": {"name": "GCAGCCC (DNA:RNA)", "RNA": "B2 RNA with A25G, U26C, U30C, G31C", "DNA 1": "CAATCTGAATTCCGGTCTCCC", "DNA 2": "TGGTGGCTACGACGGGATT"}}, "note": "Numbering of substitutions follows the chain as printed; changes in the protein carry UniProt numbers. Some of the results follow.", "data": [{"biological_target": "T1, RBFOX1 RRM (Homo sapiens, UniProt Q9NWB1 109-208)", "T1 sequence": "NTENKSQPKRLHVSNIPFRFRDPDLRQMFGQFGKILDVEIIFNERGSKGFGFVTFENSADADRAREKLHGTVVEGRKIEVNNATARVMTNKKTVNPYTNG", "assay": "EMSA; HiTS-Eq, 1 nM pool, 10 min; buffer printed only for the single-RNA assays: 10 mM Tris pH 7.5, 150 mM NaCl, 3.4 mM EDTA, 0.001% NP-40, 30 C", "conditions": "tags: His6 N-terminal (pET28a); label: 5' 32P", "procedure,_shortened": "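Purified wild-type or mutant RbFox RRM at increasing concentrations was equilibrated with 1 nM of 5′-radiolabelled RNA carrying 7 randomized nucleotides for 10 min in 50 µL. Unbound RNA was separated by 8% native PAGE and sequenced. Relative association constants came from read-count changes of each RNA species compared with the control reaction, normalised to the cognate motif.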", "values": [{"binder": "B1", "binding signal": "0.0084 KA relative to UGCAUGU"}, {"binder": "B2", "binding signal": "0.00933 KA relative to UGCAUGU"}, {"binder": "B3", "binding signal": "0.0395 KA relative to UGCAUGU"}, {"binder": "B4", "binding signal": "0.0162 KA relative to UGCAUGU"}, {"binder": "B5", "binding signal": "0.018 KA relative to UGCAUGU"}, {"binder": "B6", "binding signal": "0.00866 KA relative to UGCAUGU"}, {"binder": "B7", "binding signal": "0.000415 KA relative to UGCAUGU"}, {"binder": "B8", "binding signal": "0.0154 KA relative to UGCAUGU"}, {"binder": "B9", "binding signal": "0.0103 KA relative to UGCAUGU"}, {"binder": "B10", "binding signal": "0.013 KA relative to UGCAUGU"}, {"binder": "B11", "binding signal": "0.027 KA relative to UGCAUGU"}, {"binder": "B12", "binding signal": "0.0146 KA relative to UGCAUGU"}, {"binder": "B13", "binding signal": "0.0095 KA relative to UGCAUGU"}, {"binder": "B14", "binding signal": "0.0174 KA relative to UGCAUGU"}, {"binder": "B15", "binding signal": "0.00907 KA relative to UGCAUGU"}, {"binder": "B16", "binding signal": "0.0075 KA relative to UGCAUGU"}, {"binder": "B17", "binding signal": "0.000546 KA relative to UGCAUGU"}, {"binder": "B18", "binding signal": "0.00304 KA relative to UGCAUGU"}, {"binder": "B19", "binding signal": "0.00248 KA relative to UGCAUGU"}, {"binder": "B20", "binding signal": "0.0078 KA relative to UGCAUGU"}]}]}
